# Data published in a collection of fitness landscapes (doi:10.1016/j.celrep.2020.107928).
# Over roughly 81,000 sequences, “one-hybrid fitness for binding NBS DNA” has its median near -0.1; the highest 2% begin near 0.36. This is one part of the list.
# B1: Caulobacter ParB omega fusion; a variant is named by its letters at X, in order, B8GW30 (parent)
# chain: MESVVVGEPGMSEGRRGLGRGLSALLGEVDAAPAQAPGEQLGGSREAPIEILQRNPDQPRRTFREEDLEDLSNSIREKGVLQPILVRPSPDTAGEYQIVAGERAWRAAQRAGLKTVPIMVRELDDLAVLEIGIIENVQRADLNVLEEALSYKVLMEKFERTQENIAQTIGKSXSHVANXMRLLXLPDEVQSYLVSGELTAXHARAIAAAADPVALAKQIIEGGLSVRETEALARKAPNLSAGKSKGGRPPRVKDTDTQALESDLSSVLGLDVSIDHRGSTGTLTITYATLEQLDDLCNRLTRGI
# Variants of: B1
# Assay: one-hybrid fitness for binding NBS DNA (the Noc-binding site; scaled: cognate 1, non-cognate 0); higher = stronger binding
# Conditions: with NBS DNA site
# Summary of the method: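 The reporter was HIS3, with the binding site 19 bp from the promoter, in E. coli USO used for bacterial one-hybrid selection of Caulobacter ParB libraries with four specificity codons randomised. Growth was on M9 lacking histidine, with 0.1 mM IPTG and 5 mM 3-AT, for 48 hours at 37°C. Illumina sequencing covered plasmids before and after selection; three replicate libraries were pooled and variants with under 10 reads dropped. A fitness score is the log change in variant-to-wild-type read ratio, rescaled to the cognate and non-cognate references.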
row,Variant,one-hybrid fitness for binding NBS DNA
1,EEHG,≤ 0.2
2,RMSH,≤ 0.2
3,PALS,≤ 0.2
4,RKGG,≤ 0.2
5,TAAY,≤ 0.2
6,QPLT,≤ 0.2
7,ANLS,≤ 0.2
8,RQTC,≤ 0.2
9,IKVR,≤ 0.2
10,FPYR,≤ 0.2
11,DCHS,≤ 0.2
12,KRTL,≤ 0.2
13,LQYG,≤ 0.2
14,CTLE,≤ 0.2
15,IDPK,≤ 0.2
16,CQVF,≤ 0.2
17,PMLE,≤ 0.2
18,GESN,≤ 0.2
19,VPHE,≤ 0.2
20,WNTG,≤ 0.2
21,QVPT,≤ 0.2
22,DAVL,≤ 0.2
23,TLMI,≤ 0.2
24,IPLK,≤ 0.2

row,Variant,one-hybrid fitness for binding NBS DNA
1,LLRC,≤ 0.2
2,NRIH,≤ 0.2
3,KIIS,≤ 0.2
4,TAID,≤ 0.2
5,QMSN,≤ 0.2
6,YIPE,≤ 0.2
7,QNSQ,≤ 0.2
8,TPKF,≤ 0.2
9,VAWF,≤ 0.2
10,SMLR,≤ 0.2
11,VDAN,≤ 0.2
12,TLRP,≤ 0.2
13,ATAC,≤ 0.2
14,YRRK,≤ 0.2
15,TSRH,≤ 0.2
16,NAQR,≤ 0.2
17,WNTN,≤ 0.2
18,WTSC,≤ 0.2
19,TYHR,≤ 0.2
20,SKQT,≤ 0.2
21,MARP,≤ 0.2
22,KPRT,≤ 0.2
23,IFWR,≤ 0.2
24,LPNM,≤ 0.2

row,Variant,one-hybrid fitness for binding NBS DNA
1,QVKY,0.383
2,QMGI,≤ 0.2
3,MKLT,≤ 0.2
4,VHES,≤ 0.2
5,MDVT,≤ 0.2
6,VHPL,≤ 0.2
7,CRNN,≤ 0.2
8,QVHR,0.436
9,RFFV,≤ 0.2
10,PFQR,0.295
11,IVMR,≤ 0.2
12,PYDL,≤ 0.2
13,MMSS,≤ 0.2
14,KDIS,≤ 0.2
15,VAVF,≤ 0.2
16,ILFV,≤ 0.2
17,QKSN,≤ 0.2
18,TWTG,≤ 0.2
19,PPQD,≤ 0.2
20,SIEC,≤ 0.2
21,RCPA,≤ 0.2
22,MCTL,≤ 0.2
23,REAM,≤ 0.2
24,EISE,≤ 0.2

row,Variant,one-hybrid fitness for binding NBS DNA
1,MYLT,≤ 0.2
2,RWFA,≤ 0.2
3,NKTC,≤ 0.2
4,TSHV,≤ 0.2
5,RAKS,0.571
6,ADPI,≤ 0.2
7,DIRR,≤ 0.2
8,DSCK,≤ 0.2
9,QYIL,≤ 0.2
10,EPWS,≤ 0.2
11,KYDL,≤ 0.2
12,KRDV,≤ 0.2
13,NYLV,≤ 0.2
14,DILT,≤ 0.2
15,QTHC,0.248
16,HCSM,≤ 0.2
17,SMRV,≤ 0.2
18,TPSN,≤ 0.2
19,FTLG,≤ 0.2
20,LSLL,≤ 0.2
21,CTRG,≤ 0.2
22,RPHT,≤ 0.2
23,VCLR,≤ 0.2
24,RFNL,≤ 0.2

row,Variant,one-hybrid fitness for binding NBS DNA
1,QLKT,0.673
2,EFTH,≤ 0.2
3,VGHV,≤ 0.2
4,QHYE,≤ 0.2
5,NHWV,≤ 0.2
6,SLRY,≤ 0.2
7,RLFW,≤ 0.2
8,PWSS,≤ 0.2
9,QSSA,≤ 0.2
10,DPPP,≤ 0.2
11,LGPS,≤ 0.2
12,CRSV,≤ 0.2
13,QRIH,0.335
14,QRCP,0.249
15,KICK,≤ 0.2
16,CLEG,≤ 0.2
17,PTNK,≤ 0.2
18,ALPS,≤ 0.2
19,NKGR,≤ 0.2
20,NTRY,≤ 0.2
21,LLHN,≤ 0.2
22,EWNI,≤ 0.2
23,ATQG,≤ 0.2
24,IVMP,≤ 0.2

row,Variant,one-hybrid fitness for binding NBS DNA
1,LQWR,≤ 0.2
2,QRIF,≤ 0.2
3,APAS,≤ 0.2
4,KCTG,≤ 0.2
5,YTSA,≤ 0.2
6,ETQG,≤ 0.2
7,YCTF,≤ 0.2
8,ATGN,≤ 0.2
9,WQES,≤ 0.2
10,WMVY,≤ 0.2
11,NFEG,≤ 0.2
12,SITH,≤ 0.2
13,CAQD,≤ 0.2
14,AKYK,≤ 0.2
15,NYTS,≤ 0.2
16,YRAG,≤ 0.2
17,YAYR,≤ 0.2
18,ACVG,≤ 0.2
19,FFNG,≤ 0.2
20,PAKL,≤ 0.2
21,DYQS,≤ 0.2
22,RLRR,0.673
23,RGGI,≤ 0.2
24,QTGK,0.226

row,Variant,one-hybrid fitness for binding NBS DNA
1,KRLT,0.469
2,CRRK,≤ 0.2
3,AWGC,≤ 0.2
4,QRLL,≤ 0.2
5,DVTE,≤ 0.2
6,ALVR,≤ 0.2
7,TNGD,≤ 0.2
8,NFRN,≤ 0.2
9,GSDT,≤ 0.2
10,DSRR,≤ 0.2
11,TPDL,≤ 0.2
12,PAHD,≤ 0.2
13,ALFN,≤ 0.2
14,QVIH,≤ 0.2
15,SQTY,≤ 0.2
16,QPMT,≤ 0.2
17,WAHD,≤ 0.2
18,PRCH,≤ 0.2
19,NLQI,≤ 0.2
20,ISQE,≤ 0.2
21,TVRM,≤ 0.2
22,MDME,≤ 0.2
23,RMCI,≤ 0.2
24,RSIN,≤ 0.2

row,Variant,one-hybrid fitness for binding NBS DNA
1,ANHD,≤ 0.2
2,PVKN,≤ 0.2
3,CVNR,≤ 0.2
4,DMGM,≤ 0.2
5,VKRI,≤ 0.2
6,HTYG,≤ 0.2
7,LRWN,≤ 0.2
8,QPHV,≤ 0.2
9,FPIE,≤ 0.2
10,DQPH,≤ 0.2
11,WFVC,≤ 0.2
12,RNYV,≤ 0.2
13,YSNK,≤ 0.2
14,CVDN,≤ 0.2
15,MYLR,≤ 0.2
16,CPPW,≤ 0.2
17,NMHI,≤ 0.2
18,AKPT,≤ 0.2
19,CNVS,≤ 0.2
20,QMRS,0.691
21,SHVF,≤ 0.2
22,AHSV,≤ 0.2
23,RMTE,≤ 0.2
24,RWMY,≤ 0.2

row,Variant,one-hybrid fitness for binding NBS DNA
1,EYYV,≤ 0.2
2,PLFG,≤ 0.2
3,ITAT,≤ 0.2
4,ATTN,≤ 0.2
5,RFSP,≤ 0.2
6,GYLD,≤ 0.2
7,QVDA,≤ 0.2
8,DTKA,≤ 0.2
9,VWDM,≤ 0.2
10,MIIC,≤ 0.2
11,AVMH,≤ 0.2
12,MCMN,≤ 0.2
13,VAAW,≤ 0.2
14,CVCG,≤ 0.2
15,QISH,≤ 0.2
16,PKHI,≤ 0.2
17,IPRY,≤ 0.2
18,VDRS,≤ 0.2
19,AAYA,≤ 0.2
20,FLDY,≤ 0.2
21,FLIG,≤ 0.2
22,RAHW,≤ 0.2
23,IMNL,≤ 0.2
24,HNYQ,≤ 0.2

row,Variant,one-hybrid fitness for binding NBS DNA
1,HDND,≤ 0.2
2,RDWG,≤ 0.2
3,HKLC,≤ 0.2
4,HTIP,≤ 0.2
5,LSKY,≤ 0.2
6,PPLV,≤ 0.2
7,LNPN,≤ 0.2
8,QEKL,≤ 0.2
9,ACPC,≤ 0.2
10,AGSM,≤ 0.2
11,YGCR,≤ 0.2
12,QFYL,≤ 0.2
13,PSPV,≤ 0.2
14,ADHF,≤ 0.2
15,RFKV,≤ 0.2
16,QTIE,≤ 0.2
17,CLFS,≤ 0.2
18,KQNG,≤ 0.2
19,KHNA,≤ 0.2
20,AGNT,≤ 0.2
21,WWAC,≤ 0.2
22,DNMR,≤ 0.2
23,SRLS,≤ 0.2
24,QSIR,0.336

row,Variant,one-hybrid fitness for binding NBS DNA
1,AAHE,≤ 0.2
2,TQQR,≤ 0.2
3,VTVG,≤ 0.2
4,CRCR,≤ 0.2
5,GTTP,≤ 0.2
6,NQMT,≤ 0.2
7,SDLQ,≤ 0.2
8,DTRR,0.303
9,PCPI,≤ 0.2
10,AWPL,≤ 0.2
11,KSSV,≤ 0.2
12,LARI,≤ 0.2
13,PIGG,≤ 0.2
14,RMKR,0.738
15,QDRG,≤ 0.2
16,SARD,≤ 0.2
17,SLWT,≤ 0.2
18,DRQT,≤ 0.2
19,CPVR,≤ 0.2
20,DAES,≤ 0.2
21,QTWM,≤ 0.2
22,MTYC,≤ 0.2
23,QMWR,0.403
24,RVSG,≤ 0.2

row,Variant,one-hybrid fitness for binding NBS DNA
1,PRYI,≤ 0.2
2,QCSR,0.614
3,KLIG,≤ 0.2
4,KRSE,≤ 0.2
5,KQYR,≤ 0.2
6,KTDD,≤ 0.2
7,SPND,≤ 0.2
8,TFNR,≤ 0.2
9,DVET,≤ 0.2
10,SPCE,≤ 0.2
11,QNLR,≤ 0.2
12,ELKS,≤ 0.2
13,QVNA,≤ 0.2
14,NQVG,≤ 0.2
15,MVSW,≤ 0.2
16,TVWY,≤ 0.2
17,SNCR,≤ 0.2
18,TPIV,≤ 0.2
19,NPQP,≤ 0.2
20,SLET,≤ 0.2
21,CHSC,≤ 0.2
22,VKKR,0.237
23,QERW,≤ 0.2
24,QEDR,≤ 0.2

row,Variant,one-hybrid fitness for binding NBS DNA
1,HVEY,≤ 0.2
2,QKYF,≤ 0.2
3,CHIA,≤ 0.2
4,PHWV,≤ 0.2
5,MRLC,≤ 0.2
6,KYRG,≤ 0.2
7,AVTV,≤ 0.2
8,KAVT,≤ 0.2
9,DYWT,≤ 0.2
10,GMPD,≤ 0.2
11,SVNI,≤ 0.2
12,QHLT,0.337
13,ISFE,≤ 0.2
14,GVQL,≤ 0.2
15,FTSW,≤ 0.2
16,TQAT,≤ 0.2
17,EASD,≤ 0.2
18,CDAE,≤ 0.2
